Measured values: PMC9724675
Results are given in words; binding and its absence hold for the method and conditions named. Binding seen in cells or lysates may run through a third protein. Some results given as binding are weak or reduced against the parent protein; the word gives no strength. Sequences can lack the tags named with a protein.

How the values were obtained:
[1] = target: T1, POPDC1-VN and POPDC1-VC (mouse POPDC1 fused to a half of Venus) (mouse) (UniProt Q9ES83); experiment: split reporter; BiFC (split Venus, VN and VC) in COS-7 cells, which lack detectable endogenous POPDC proteins; plate reader, normalised to DAPI
T1 sequence: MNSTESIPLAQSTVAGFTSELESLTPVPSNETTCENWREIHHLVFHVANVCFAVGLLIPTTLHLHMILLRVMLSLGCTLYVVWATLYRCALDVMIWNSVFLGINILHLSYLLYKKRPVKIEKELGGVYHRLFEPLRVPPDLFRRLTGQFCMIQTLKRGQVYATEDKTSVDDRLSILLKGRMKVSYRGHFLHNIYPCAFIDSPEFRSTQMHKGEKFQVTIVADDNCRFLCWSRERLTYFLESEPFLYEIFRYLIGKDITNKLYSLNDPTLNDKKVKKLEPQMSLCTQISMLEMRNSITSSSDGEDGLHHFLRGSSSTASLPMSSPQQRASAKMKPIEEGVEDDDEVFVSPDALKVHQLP

[2] = target: T2, POPDC2 fused to a half of Venus (BiFC construct) (mouse) (UniProt Q9ES82); experiment: as above
T2 sequence: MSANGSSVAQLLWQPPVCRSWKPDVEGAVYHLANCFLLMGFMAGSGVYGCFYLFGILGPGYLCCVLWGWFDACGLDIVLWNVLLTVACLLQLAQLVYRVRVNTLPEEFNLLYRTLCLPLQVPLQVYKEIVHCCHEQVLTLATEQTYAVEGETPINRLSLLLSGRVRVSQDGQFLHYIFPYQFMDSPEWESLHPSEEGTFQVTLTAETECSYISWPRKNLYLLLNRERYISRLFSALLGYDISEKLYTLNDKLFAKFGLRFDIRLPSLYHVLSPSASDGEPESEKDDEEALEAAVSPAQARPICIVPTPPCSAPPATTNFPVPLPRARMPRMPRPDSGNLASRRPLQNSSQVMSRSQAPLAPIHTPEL

[3] = target: T3, POPDC3 fused to a half of Venus (BiFC construct) (mouse) (UniProt Q9ES81); experiment: as above
T3 sequence: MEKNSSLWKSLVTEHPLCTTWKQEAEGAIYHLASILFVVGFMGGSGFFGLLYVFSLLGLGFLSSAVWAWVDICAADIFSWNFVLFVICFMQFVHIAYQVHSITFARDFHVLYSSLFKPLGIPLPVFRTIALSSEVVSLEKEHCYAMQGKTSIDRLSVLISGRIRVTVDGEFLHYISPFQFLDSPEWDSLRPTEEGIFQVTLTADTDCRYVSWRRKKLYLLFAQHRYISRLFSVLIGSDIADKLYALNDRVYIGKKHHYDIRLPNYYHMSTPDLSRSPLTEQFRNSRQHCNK

[4] = target: T1, POPDC1-VN and POPDC1-VC (mouse POPDC1 fused to a half of Venus) (mouse); experiment: split reporter; BiFC (split Venus, VN and VC) in HEK293 cells, which express endogenous POPDC1 and POPDC2; plate reader and live-cell imaging; with or without ISO (10 μM, 10 min, 37°C; dose-response)
[5] = target: T4, endogenous POPDC1 of neonatal rat cardiomyocytes (rat (endogenous in neonatal cardiomyocytes)) (UniProt Q3BCU4); experiment: proximity ligation; neonatal rat cardiomyocytes infected with adenovirus for Flag-tagged AC9 or Flag-tagged GFP; antibodies against Flag and endogenous POPDC1, POPDC2 or Gβγ
T4 sequence: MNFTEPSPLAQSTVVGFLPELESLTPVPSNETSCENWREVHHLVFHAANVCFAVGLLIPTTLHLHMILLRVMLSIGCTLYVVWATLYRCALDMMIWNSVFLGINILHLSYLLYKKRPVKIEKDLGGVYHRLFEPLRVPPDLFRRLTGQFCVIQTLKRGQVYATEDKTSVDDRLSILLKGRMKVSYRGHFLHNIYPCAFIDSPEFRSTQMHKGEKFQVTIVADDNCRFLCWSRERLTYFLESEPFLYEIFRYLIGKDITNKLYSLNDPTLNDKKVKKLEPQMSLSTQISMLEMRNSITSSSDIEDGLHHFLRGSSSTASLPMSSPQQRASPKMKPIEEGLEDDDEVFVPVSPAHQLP

B1: AC9-VN and AC9-VC (AC9 fused to the N-terminal or C-terminal half of Venus) (enzyme, UniProt O60503 1-1353)
chain: MASPPHQQLLHHHSTEVSCDSSGDSNSVRVKINPKQLSSNSHPKHCKYSISSSCSSSGDSGGVPRRVGGGGRLRRQKKLPQLFERASSRWWDPKFDSVNLEEACLERCFPQTQRRFRYALFYIGFACLLWSIYFAVHMRSRLIVMVAPALCFLLVCVGFFLFTFTKLYARHYAWTSLALTLLVFALTLAAQFQVLTPVSGRGDSSNLTATARPTDTCLSQVGSFSMCIEVLFLLYTVMHLPLYLSLCLGVAYSVLFETFGYHFRDEACFPSPGAGALHWELLSRGLLHGCIHAIGVHLFVMSQVRSRSTFLKVGQSIMHGKDLEVEKALKERMIHSVMPRIIADDLMKQGDEESENSVKRHATSSPKNRKKKSSIQKAPIAFRPFKMQQIEEVSILFADIVGFTKMSANKSAHALVGLLNDLFGRFDRLCEETKCEKISTLGDCYYCVAGCPEPRADHAYCCIEMGLGMIKAIEQFCQEKKEMVNMRVGVHTGTVLCGILGMRRFKFDVWSNDVNLANLMEQLGVAGKVHISEATAKYLDDRYEMEDGKVIERLGQSVVADQLKGLKTYLISGQRAKESRCSCAEALLSGFEVIDGSQVSSGPRGQGTASSGNVSDLAQTVKTFDNLKTCPSCGITFAPKSEAGAEGGAPQNGCQDEHKNSTKASGGPNPKTQNGLLSPPQEEKLTNSQTSLCEILQEKGRWAGVSLDQSALLPLRFKNIREKTDAHFVDVIKEDSLMKDYFFKPPINQFSLNFLDQELERSYRTSYQEEVIKNSPVKTFASPTFSSLLDVFLSTTVFLTLSTTCFLKYEAATVPPPPAALAVFSAALLLEVLSLAVSIRMVFFLEDVMACTKRLLEWIAGWLPRHCIGAILVSLPALAVYSHVTSEYETNIHFPVFTGSAALIAVVHYCNFCQLSSWMRSSLATVVGAGPLLLLYVSLCPDSSVLTSPLDAVQNFSSERNPCNSSVPRDLRRPASLIGQEVVLVFFLLLLLVWFLNREFEVSYRLHYHGDVEADLHRTKIQSMRDQADWLLRNIIPYHVAEQLKVSQTYSKNHDSGGVIFASIVNFSEFYEENYEGGKECYRVLNELIGDFDELLSKPDYSSIEKIKTIGATYMAASGLNTAQAQDGSHPQEHLQILFEFAKEMMRVVDDFNNNMLWFNFKLRVGFNHGPLTAGVIGTTKLLYDIWGDTVNIASRMDTTGVECRIQVSEESYRVLSKMGYDFDYRGTVNVKGKGQMKTYLYPKCTDHRVIPQHQLSISPDIRVQVDGSIGRSPTDEIANLVPSVQYVDKTSLGSDSSTQAKDAHLSPKRPWKEPVKAEERGRFGKAIEKDDCDETGIEEANELTKLNVSKSV
For B1, the binding [1] was “binds”, the binding [2] was “binds” and the binding [3] was “binds”. The binding [4] was “binds”.

B2: Flag-tagged AC9, adenovirally expressed (enzyme, UniProt O60503 1-1353)
chain: MASPPHQQLLHHHSTEVSCDSSGDSNSVRVKINPKQLSSNSHPKHCKYSISSSCSSSGDSGGVPRRVGGGGRLRRQKKLPQLFERASSRWWDPKFDSVNLEEACLERCFPQTQRRFRYALFYIGFACLLWSIYFAVHMRSRLIVMVAPALCFLLVCVGFFLFTFTKLYARHYAWTSLALTLLVFALTLAAQFQVLTPVSGRGDSSNLTATARPTDTCLSQVGSFSMCIEVLFLLYTVMHLPLYLSLCLGVAYSVLFETFGYHFRDEACFPSPGAGALHWELLSRGLLHGCIHAIGVHLFVMSQVRSRSTFLKVGQSIMHGKDLEVEKALKERMIHSVMPRIIADDLMKQGDEESENSVKRHATSSPKNRKKKSSIQKAPIAFRPFKMQQIEEVSILFADIVGFTKMSANKSAHALVGLLNDLFGRFDRLCEETKCEKISTLGDCYYCVAGCPEPRADHAYCCIEMGLGMIKAIEQFCQEKKEMVNMRVGVHTGTVLCGILGMRRFKFDVWSNDVNLANLMEQLGVAGKVHISEATAKYLDDRYEMEDGKVIERLGQSVVADQLKGLKTYLISGQRAKESRCSCAEALLSGFEVIDGSQVSSGPRGQGTASSGNVSDLAQTVKTFDNLKTCPSCGITFAPKSEAGAEGGAPQNGCQDEHKNSTKASGGPNPKTQNGLLSPPQEEKLTNSQTSLCEILQEKGRWAGVSLDQSALLPLRFKNIREKTDAHFVDVIKEDSLMKDYFFKPPINQFSLNFLDQELERSYRTSYQEEVIKNSPVKTFASPTFSSLLDVFLSTTVFLTLSTTCFLKYEAATVPPPPAALAVFSAALLLEVLSLAVSIRMVFFLEDVMACTKRLLEWIAGWLPRHCIGAILVSLPALAVYSHVTSEYETNIHFPVFTGSAALIAVVHYCNFCQLSSWMRSSLATVVGAGPLLLLYVSLCPDSSVLTSPLDAVQNFSSERNPCNSSVPRDLRRPASLIGQEVVLVFFLLLLLVWFLNREFEVSYRLHYHGDVEADLHRTKIQSMRDQADWLLRNIIPYHVAEQLKVSQTYSKNHDSGGVIFASIVNFSEFYEENYEGGKECYRVLNELIGDFDELLSKPDYSSIEKIKTIGATYMAASGLNTAQAQDGSHPQEHLQILFEFAKEMMRVVDDFNNNMLWFNFKLRVGFNHGPLTAGVIGTTKLLYDIWGDTVNIASRMDTTGVECRIQVSEESYRVLSKMGYDFDYRGTVNVKGKGQMKTYLYPKCTDHRVIPQHQLSISPDIRVQVDGSIGRSPTDEIANLVPSVQYVDKTSLGSDSSTQAKDAHLSPKRPWKEPVKAEERGRFGKAIEKDDCDETGIEEANELTKLNVSKSV
In the case of B2, the binding [5] is reported as “binds”.
